In PubChem BioAssay AID504832 (National Center for Advancing Translational Sciences (NCATS), 2011):
Out of some 310,000 compounds screened, about 18,000 (5.8%) were called active. Inconclusive means that the source gave no clear call. Such entries were picked first, then a sample of the others. Calls come from the whole dose curve; as a rule, active = well fitted inhibition curve with a large enough effect; inconclusive = small, poorly fitted or top-dose-only effect, or another doubt; inactive = no such curve, though single readings can be large or run the other way. No potency is given beside an inconclusive call; the fits are too rough.

Assay: Primary qHTS for delayed death inhibitors of the malarial parasite plastid, 48 hour incubation
Conditions: P. falciparum luciferase growth in erythrocytes; series mostly up to 28.7 µM
Method in brief: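 Read-out is firefly luciferase luminescence from an integrated reporter in P. falciparum, so falling signal marks reduced parasite growth. Infected erythrocytes were at 2% hematocrit and 0.1% parasitemia (final) in Albumax-supplemented RPMI 1640.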
Potency is the fitted concentration of half-maximal effect; tags give direction and shape of the fitted curve.

Row | SMILES | Potency
1 | CC(C)n1cnnc1SCC(=O)NNC(=O)COc1ccc(Cl)cc1 | inactive
2 | CCOC(=O)/C(C#N)=C/Nc1ccccc1NS(=O)(=O)c1cccc(C(C)=O)c1 | inconclusive [inhibitor, single point]
3 | Cc1ccc(/C=N/Nc2nc3ccccc3s2)o1 | inactive
4 | CCOC(=O)c1sc2c(c1C)c(=O)n(CCO)c(=O)n2Cc1ccccc1 | inconclusive [inhibitor, single point]
5 | COc1ccc2cc(C(=O)C3CCCN(C(=O)Cc4c(C)noc4C)C3)ccc2c1 (centres undefined) | inconclusive [inhibitor, single point]
6 | OCc1ncc(-c2ccccc2)s1 | inactive
7 | Cc1ccc(NCC(=O)N/N=C\c2ccc([N+](=O)[O-])o2)cc1 | inconclusive [inhibitor, partial curve]
8 | CCCCSc1nc2ccc(Nc3nc(N4CCOCC4)nc(N4CCOCC4)n3)cc2s1 | inconclusive [inhibitor, single point]
9 | COC(=O)C1=C(Nc2cc(Cl)cc(Cl)c2)CSC1 | inactive
10 | c1cncc(-c2nc(NCC3CCCO3)c3ccccc3n2)c1 (centres undefined) | inconclusive [inhibitor, single point]
11 | Cc1occc1-c1nnc(-c2cc([N+](=O)[O-])cc([N+](=O)[O-])c2)o1 | active: 10.4 µM
12 | CCOC(=O)C1CCCN(c2c(NCCc3cccc(C)c3)c(=O)c2=O)C1 (centres undefined) | inconclusive [inhibitor, single point]
13 | CC(=O)N/N=C/c1ccc([N+](=O)[O-])o1 | inconclusive [inhibitor, partial curve, poor fit]
14 | COc1ccc(-n2nnnc2/C=C/Nc2cc(C(F)(F)F)ccc2OC)cc1 | inconclusive [inhibitor, single point]
15 | CC1CC(N(C(=O)c2ccccc2Cl)c2ccccc2)c2ccccc2N1 (centres undefined) | inconclusive [inhibitor, single point]
16 | CC1CCN(C(=O)C2CCN(S(=O)(=O)c3ccc4c(c3)CC(C)N4C(=O)C3CC3)CC2)CC1 (centres undefined) | active: 9.28 µM
17 | COc1ccc(C)cc1NC(=O)C1CCCN(S(=O)(=O)c2ccc(-n3cnnn3)cc2)C1 (centres undefined) | inconclusive [inhibitor, single point]
18 | OCCCc1cn(Cc2ccccc2)c2ccccc12 | inconclusive [inhibitor, single point]
19 | O=C(N/N=C/c1ccccc1O)C1CC(=O)N(c2ccc(Cl)cc2)C1 (centres undefined) | active: 11.7 µM
20 | CCN(Cc1ccccc1)S(=O)(=O)c1cc(C(=O)NC(C)C2CC3CCC2C3)ccc1OC (centres undefined) | inconclusive [inhibitor, single point]
21 | COc1ccc(OCc2cc(C(=O)N3CCCC(OC)C3)no2)c2ccccc12 (centres undefined) | inconclusive [inhibitor, single point]
22 | Cc1ccc(NC(=O)CCNC(=O)Nc2ccccc2)cc1S(=O)(=O)N(C)C | inconclusive [inhibitor, single point]

Row | SMILES | Potency
23 | COC(=O)c1ccc(OCCOCCOc2cccc3ccc(C)nc23)cc1 | inconclusive [inhibitor, single point]
24 | Cc1noc(C)c1COc1ccccc1C(=O)N1CCN(S(=O)(=O)c2cccc(Cl)c2)CC1 | inconclusive [inhibitor, partial curve, poor fit]
25 | COc1ccc(OC)c(S(=O)(=O)N(C(C)=O)c2ccc3oc(=O)sc3c2)c1 | inactive
26 | Cn1nnnc1SCC(=O)NCc1ccco1 | inactive
27 | CCOC(=O)c1ccc(S(=O)(=O)Nc2ccc(N3CCOCC3)cc2)cc1 | inactive
28 | c1ccc(-c2ccc(Oc3cc(N4CCOCC4)nc(-c4ccccc4)n3)cc2)cc1 | inconclusive [inhibitor, single point]
29 | Cc1nnc(SCC(=O)Nc2ccccc2)c2ccccc12 | inconclusive [inhibitor, partial curve, poor fit]
30 | CC1CCN(S(=O)(=O)c2cccc(C(=O)NCC3CCCO3)c2)CC1 (centres undefined) | inactive
31 | COC(=O)COc1ccc(C2NC(=O)NC(c3ccccc3)=C2C(C)=O)cc1Br (centres undefined) | inactive
32 | CCN(CC)CCn1c2c(c(SCC(=O)Nc3cccc(C(C)=O)c3)nc1=O)CCCC2 | inconclusive [inhibitor, partial curve, poor fit]
33 | COc1cc(C(=O)N2CCC(NC(=O)C(Cc3ccccc3)NC(C)=O)CC2)cc(OC)c1OC (centres undefined) | inconclusive [inhibitor, single point]
34 | COc1ccc(OC)c(NC(=O)CN2C(=O)COc3ccc(C)cc32)c1 | inconclusive [inhibitor, partial curve, poor fit]
35 | COc1cccc(NC2SC(=O)N(c3ccccc3)C2=O)c1 (centres undefined) | inactive
36 | CCc1c(C)nc2ncnn2c1N1CCC(C(=O)Nc2ccccc2)CC1 | inconclusive [inhibitor, partial curve]
37 | Cc1cc(OC2CCCCC2)nc(NCc2ccccc2)n1 | inconclusive [inhibitor, partial curve]
38 | CC[C@]1([C@H]2O[C@@H]([C@@H]3O[C@](O)(CO)[C@@H](C)C[C@H]3C)C[C@H]2C)CC[C@@H]([C@]2(C)CC[C@@]3(C[C@@H](O)[C@@H](C)[C@@H]([C@H](C)[C@H](OC)[C@H](C)C(=O)O)O3)O2)O1 | active: 0.0169 µM
39 | CS(=O)(=O)c1sc(C(=O)NC(=S)Nc2ccc(OC(F)(F)F)cc2)c2c1C=CCC2 | active: 2.62 µM
40 | Nc1ccc(N=Nc2ccccc2)c2cccnc12 | inactive
41 | Cc1nc2cc(NS(=O)(=O)c3ccccc3)ccc2n1C | inactive
42 | CCOC(=O)C1=C(C)N=c2s/c(=C\c3ccc(OCC(=O)O)cc3)c(=O)n2C1c1ccc(Cl)cc1 (centres undefined) | active: 9.28 µM
43 | COc1ccc(-c2cc3c(=O)n(CC(=O)NCCCN4CCC(N5CCCCC5)CC4)ncn3n2)cc1 | inconclusive [inhibitor, full curve]
44 | Cc1nn(-c2ccccc2)c(N2CCCC2)c1/C=N/NC(=S)Nc1cc(C(F)(F)F)ccc1Cl | active: 11.7 µM
